In this series the test system is CCRIS mutagenicity, Ames/micronucleus/aberration tests. The series is described as follows: CCRIS mutagenicity studies.
[1] abbreviates: Test System: AMES SALMONELLA TYPHIMURIUM, Strain/Indicator: TA100, Metabolic Activation: NONE, Method: PREINCUBATION
Where [2] appears, read: End Point: IN VITRO CHROMOSOMAL ABERRATIONS, Test System: CHL CELLS, Metabolic Activation: NONE.

From PubChem BioAssay AID1259407 (Chemical Carcinogenesis Research Information System (CCRIS), 2018) come the findings set out here.

Entries after “also recorded” stand apart in the source; their conditions may differ. Some entries of the source have several records that differ or are many. Only these are listed. The rule behind the calls is not given here. An entry can have further records. Values that stand side by side differ for a reason that is not stated; dose, time, organism, isomer or construct need not be as stated for each record. Brackets tell where a record comes from. Letters hold for one entry only.

In the case of `O=P(OCC(Br)CBr)(OCC(Br)CBr)OCC(Br)CBr` (stereo not drawn), the mutagenic call is, setting by setting: (Test System: E. COLI, Strain/Indicator: WP2 UVRA, Metabolic Activation: HAMSTER, LIVER, S-9, AROCLOR 1254, Method: STANDARD PLATE) “inactive; negative and active; positive”; (Test System: E. COLI, Strain/Indicator: WP2 UVRA, Metabolic Activation: HAMSTER, LIVER, S-9, Method: STANDARD PLATE) “inactive; negative and active; positive”; (Test System: E. COLI, Strain/Indicator: WP2 UVRA, Metabolic Activation: MOUSE, LIVER, S-9, AROCLOR 1254, Method: STANDARD PLATE) “inactive; negative and active; positive”; (Test System: E. COLI, Strain/Indicator: WP2 UVRA, Metabolic Activation: RAT, LIVER, S-9, AROCLOR 1254, Method: STANDARD PLATE) “inactive; negative and active; positive”.
Turning to `O=C(CBr)c1ccc(-c2ccccc2)cc1`, the mutagenic call under setting [1] is “inactive; negative and active; positive”.
Regarding `CCC(Cl)C(=O)O` (stereo not drawn), under setting [2], the mutagenic call is “active; positive (structural changes) and inactive; negative”.
Take `CCN(CC)c1ccc(C(=C2C=CC(=[N+](CC)CC)C=C2)c2ccc(N(CC)CC)cc2)cc1`: the mutagenic call (Test System: AMES SALMONELLA TYPHIMURIUM, Strain/Indicator: TA1535, Metabolic Activation: HAMSTER, LIVER, S-9, AROCLOR 1254 (10%), Method: STANDARD PLATE) was “inactive; negative and active; positive”.
Take `Nc1ccc([N+](=O)[O-])cc1Cl`: the mutagenic call under setting [2] was “inactive; negative; also recorded: inactive; negative; authors report equivocal results for ploidy changes; also recorded: active; positive (structural changes); authors report equivocal results for ploidy chang”.
On to `CNc1ccc(N(CCO)CCO)cc1[N+](=O)[O-]`, for which, where the note is “Test System: MOUSE LYMPHOMA, Strain/Indicator: L5178Y (TK+/TK-), Metabolic Activation: NONE, Method: SUSPENSION/PLATE”, the mutagenic call was “active; positive [study A] and inactive; negative [study B]”.
Take `O=C1C=CC(=O)C=C1`: the mutagenic call was “inactive; negative and active; positive” (Test System: AMES SALMONELLA TYPHIMURIUM, Strain/Indicator: TA97, Metabolic Activation: NONE, Method: PREINCUBATION); “inactive; negative [study A] and active; positive [study B] and inactive; negative [study C]” (Test System: AMES SALMONELLA TYPHIMURIUM, Strain/Indicator: TA98, Metabolic Activation: NONE, Method: PREINCUBATION); “inactive; negative and active; positive” (Test System: AMES SALMONELLA TYPHIMURIUM, Strain/Indicator: TA104, Metabolic Activation: NONE, Method: PREINCUBATION).
Regarding `CCOc1ccc(NO)cc1`, the mutagenic call under setting [1] is “active; positive [study A] and inactive; negative [study B] and active; positive [study C]”.
In the case of `NCCNCCNCCNCCN`, the mutagenic call is “active; positive and inactive; negative” (Test System: AMES SALMONELLA TYPHIMURIUM, Strain/Indicator: TA98, Metabolic Activation: HAMSTER, LIVER, S-9, AROCLOR 1254 (10%), Method: PREINCUBATION); “active; positive and inactive; negative” (Test System: AMES SALMONELLA TYPHIMURIUM, Strain/Indicator: TA98, Metabolic Activation: RAT, LIVER, S-9, AROCLOR 1254 (10%), Method: PREINCUBATION).
Turning to `CC(=O)C(Cl)Cl`, where the note is “Test System: AMES SALMONELLA TYPHIMURIUM, Strain/Indicator: TA100, Metabolic Activation: NONE, Method: STANDARD PLATE”, the mutagenic call is “inactive; negative [study A] and active; positive [study B]”.
As to `FC(F)Cl`, the mutagenic call (Test System: AMES SALMONELLA TYPHIMURIUM, Strain/Indicator: TA100, Metabolic Activation: NONE, Method: GAS EXPOSURE) was “inactive; negative [study A] and active; positive [study B]”.
`Nc1ccccc1[N+](=O)[O-]`: under setting [2], the mutagenic call is “inactive; negative; authors report equivocal results for ploidy changes at 0.13 mg/ml; also recorded: active; positive (ploidy changes); also recorded: active; positive (structural and ploidy changes)”.
